Measurements: PubChem BioAssay AID1460 (National Center for Advancing Translational Sciences (NCATS), 2008)
In all, about 270,000 compounds went through this assay and about 5,800 (2.1%) were called active. Inconclusive means that the source gave no clear call. Such entries were picked first, then a sample of the others. The call rests on the fitted dose curve; in most records, active means well fitted inhibition curve with a large enough effect; inconclusive means small, poorly fitted or top-dose-only effect; inactive means flat fitted curve, though single readings scatter. Potencies beside an inconclusive call are fits to weak or partial responses and may not hold up.

Each molecule was assayed against Microtubule-associated protein tau (Homo sapiens) (UniProt P10636) (assay: qHTS for Inhibitors of Tau Fibril Formation, Thioflavin T Binding). Details: recombinant tau K18 P301L, heparin-induced fibrillization, ThT fluorescence; series mostly up to 57.4 µM; activity, negative = inhibition: at the top concentration.
How it was run: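 Fibril formation assay: tau K18 P301L at 15 uM with trace Alexa 594 label, heparin inducer 20 uM, pH 7 sodium acetate buffer, 37 C for 6 hr; endpoint ThT signal.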
Further: nearly all actives have a fitted effect of over 55% in size.
On the % scale 0 is the no-effect control and ±100 the full control effect; potency means the concentration at half of the fitted maximal effect; tags describe the fitted curve by direction and shape.

UniProt P10636, sequence (P10636 whole entry, looked up): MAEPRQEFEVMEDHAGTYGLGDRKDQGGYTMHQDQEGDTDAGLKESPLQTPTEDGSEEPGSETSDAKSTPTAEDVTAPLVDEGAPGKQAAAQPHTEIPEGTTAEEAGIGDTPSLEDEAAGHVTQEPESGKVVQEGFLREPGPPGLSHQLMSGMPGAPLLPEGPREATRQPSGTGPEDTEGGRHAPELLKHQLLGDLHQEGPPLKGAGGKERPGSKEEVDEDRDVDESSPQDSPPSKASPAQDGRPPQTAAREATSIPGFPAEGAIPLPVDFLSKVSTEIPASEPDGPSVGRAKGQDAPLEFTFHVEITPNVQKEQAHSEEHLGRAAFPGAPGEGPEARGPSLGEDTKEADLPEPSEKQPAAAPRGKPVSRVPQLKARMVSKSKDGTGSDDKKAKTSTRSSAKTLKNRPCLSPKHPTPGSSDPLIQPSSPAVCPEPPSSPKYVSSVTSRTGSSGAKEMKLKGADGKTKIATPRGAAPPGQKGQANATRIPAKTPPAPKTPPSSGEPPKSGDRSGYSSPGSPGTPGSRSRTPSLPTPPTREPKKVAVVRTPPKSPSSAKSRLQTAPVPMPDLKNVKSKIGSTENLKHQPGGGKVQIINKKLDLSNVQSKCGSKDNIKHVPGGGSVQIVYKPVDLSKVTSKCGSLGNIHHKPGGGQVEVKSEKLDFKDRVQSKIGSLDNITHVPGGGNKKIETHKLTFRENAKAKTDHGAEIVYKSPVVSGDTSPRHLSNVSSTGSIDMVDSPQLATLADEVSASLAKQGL

SMILES | activity, negative = inhibition | Potency
COc1ccc(-c2nc(C#N)c(NCCCN3CCOCC3)o2)cc1 | inactive: -13% | –
C/C(CC(=O)NC1CCCC1)=N\NC(=O)c1ccc([N+](=O)[O-])c(Cl)c1 | – | inconclusive: 10 µM [inhibitor, partial curve, poor fit]
CCSc1nc2ccccc2c(OCc2ccc(Cl)cc2)c1C(=O)OC | – | inconclusive: 10 µM [inhibitor, partial curve]
O=C(Nc1cc(SCC(O)CO)cc([N+](=O)[O-])c1)c1ccc(-n2cnnn2)cc1 (stereo unspecified) | – | inconclusive: 15.8 µM [inhibitor, partial curve]
CCCOC(=O)c1ccc(Oc2cn[nH]c2-c2ccc(OCC(=O)NN)cc2O)cc1 | inactive: -5.9% | –
COC(=O)C1=C(CSCc2ccco2)NC(=O)NC1c1cc(C)ccc1C (stereo unspecified) | – | inconclusive: 11.2 µM [inhibitor, partial curve]
CCCCn1c(SCC(=O)Nc2nccs2)nc2ccccc2c1=O | – | inconclusive: 0.112 µM [inhibitor, full curve, poor fit]
CCc1ccc(-c2cn3nc(CC)sc3n2)cc1 | – | inconclusive: 7.94 µM [inhibitor, full curve]
C/C(=N/N=C(/N)SCc1ccccc1)C(C)(C)C | inactive: -11.4% | –
CN(C)c1ccc(-c2nnc(SCC3CCCO3)n2C)cc1 (stereo unspecified) | – | inconclusive: 17.8 µM [inhibitor, partial curve, poor fit]
N=C1/C(=C/c2cccn2Cc2ccc(F)cc2)C(=O)N=C2SC=CN12 | inactive: 0.467% | –
CCOC(=O)N1CCN(C(=O)c2oc3ccc(S(=O)(=O)N4CCCCC4)cc3c2C)CC1 | inactive: -6.75% | –
Cc1cccc(NC(=O)c2nc(-c3ccccc3)n(-c3ccccc3)n2)c1C | – | inconclusive: 12.6 µM [inhibitor, partial curve]
CC(C)Cn1c(N)c(C(=O)COC(=O)c2cc(C(F)(F)F)nc3c(C(F)(F)F)cccc23)c(=O)n(C)c1=O | – | inconclusive: 3.16 µM [inhibitor, full curve, poor fit]
Nc1nsc2ccccc12 | – | active: 12.6 µM
CCC(CC)C(=O)Nc1cccc(C(=O)NCc2ccco2)c1 | – | inconclusive: 20 µM [inhibitor, partial curve, poor fit]
Oc1ccccc1-c1cc(-c2ccccc2Cl)[nH]n1 | inactive: -5.35% | –
Cn1cc(C=C2C(=O)Nc3cccnc32)c2ccccc21 | – | active: 10 µM
COC(=O)CC1Oc2ccccc2-n2cc(-c3ccc(F)cc3)nc21 (stereo unspecified) | inactive: -13.8% | –
CCOC(=O)Oc1ccc2c(=O)c(Oc3cc(C)cc(C)c3)coc2c1 | – | inconclusive: 25.1 µM [inhibitor, partial curve]
CCOC(=O)C(C)NC(=O)c1c2c(nc3ccccc13)C(=O)N(C1CCCCC1)C2 (stereo unspecified) | inactive: 3.65% | –
CC(NC(=S)NCCCN1CCOCC1)C12CC3CC(CC(C3)C1)C2 (stereo unspecified) | inactive: -7.36% | –
CCCCC(=O)Nc1ccc(Br)cc1C(=O)O | inactive: -7.53% | –
O=C1CC(Sc2ncccn2)C(=O)N1c1ccccc1C(F)(F)F (stereo unspecified) | inactive: -9.3% | –

SMILES | activity, negative = inhibition | Potency
COc1ccc(-c2nnc(SC(C)C(=O)Nc3ccc4c(c3)OCCO4)o2)cc1 (stereo unspecified) | – | inconclusive: 31.6 µM [inhibitor, partial curve]
O=C(c1cnn(-c2ccccc2)c1)c1ccccc1O | – | inconclusive: 15.8 µM [inhibitor, partial curve]
O=C(Nc1ccccc1N1CCOCC1)c1ccc(N2CCOCC2)c([N+](=O)[O-])c1 | – | inconclusive: 35.5 µM [inhibitor, single point]
Cc1ccc(-c2cc(-c3ccccc3Cl)c(C#N)c(N)n2)o1 | – | active: 31.6 µM
CCOC(=O)c1c(NC(=O)c2cc(-c3ccc(OC)c(OC)c3)on2)sc2c1CCCC2 | inactive: -10.9% | –
COc1ccc(-c2cc(C(F)(F)F)c(C#N)c(=O)[nH]2)cc1 | – | inconclusive: 35.5 µM [inhibitor, single point]
COc1ccc(-c2nc(C#N)c(N3CCN(c4ccccc4)CC3)o2)cc1 | – | inconclusive: 7.94 µM [inhibitor, partial curve]
CCc1c(C)sc2c1CCN(Cc1ccc(C#N)cc1)C2c1ccccc1 (stereo unspecified) | – | inconclusive: 39.8 µM [inhibitor, single point]
O=C(COC(=O)CCc1nc2ccccc2c(=O)[nH]1)Nc1ccc(Cl)cn1 | – | inconclusive: 28.2 µM [inhibitor, partial curve]
COc1ccc(-c2nc3cc(NC(=O)COc4ccccc4C)ccc3o2)cc1 | – | inconclusive: 0.251 µM [inhibitor, full curve, poor fit]
CCOc1ccc(NC(=S)N2CCN(CCN3C(=O)c4cccc5cccc(c45)C3=O)CC2)cc1 | – | inconclusive: 8.91 µM [inhibitor, full curve, poor fit]
C/C(=N\NC(=S)NCc1ccccc1)c1ccc(Br)cc1 | inactive: -0.875% | –
CC(/C=C/c1ccc2c(c1)OCO2)=N/NC(=O)c1cccnc1 | – | inconclusive: 10 µM [inhibitor, partial curve]
Cc1ccc(CN2CCN(Cc3ccc4cc(F)ccc4n3)CC2CCO)o1 (stereo unspecified) | – | inconclusive: 20 µM [inhibitor, partial curve]
CCc1cc(/C(Cc2ccc3ccccc3n2)=N\O)c(O)cc1O | inactive: -13.9% | –
CC(C)(C)c1ccc(NC(=O)c2c(F)cccc2Cl)cc1 | – | inconclusive: 39.8 µM [inhibitor, single point]
CC1(C)CC(=O)C2=C(C1)N(Cc1ccco1)C(=O)C2(O)C(F)(F)F (stereo unspecified) | inactive: -13.8% | –
O=C(Nc1ccc2c(c1)OCO2)C1CC(c2ccc(F)cc2)=NO1 (stereo unspecified) | – | inconclusive: 7.94 µM [inhibitor, partial curve]
COC(=O)/C=C1/SC(=NC(=O)c2ccccc2)NC1=O | inactive: -13.2% | –
Clc1ccc(-n2cccc2CN2CCc3c([nH]c4ccccc34)C2c2ccccn2)nc1 (stereo unspecified) | – | inconclusive: 17.8 µM [inhibitor, partial curve]
Cc1ccnc(NC(=S)NC(=O)/C=C/c2ccc(Cl)cc2)c1 | – | inconclusive: 12.6 µM [inhibitor, partial curve]
O=c1c(-c2ccc(Br)cc2)coc2c(CN3CCOCC3)c(O)ccc12 | – | inconclusive: 22.4 µM [inhibitor, partial curve]
O=C(/C=C/c1ccc([N+](=O)[O-])cc1)NCc1cccnc1 | – | inconclusive: 25.1 µM [inhibitor, single point]
CCOc1ccc(/C=C/C(=O)Nc2ccc3nc(N(CC)CC)cc(C)c3c2)cc1OC | – | active: 7.08 µM

SMILES | activity, negative = inhibition | Potency
Cc1ccc(C(=O)Nc2nc(=O)n(C(=O)c3ccccc3C)s2)cc1 | – | active: 14.1 µM
O=C(CCNS(=O)(=O)c1ccc2c(c1)CCN2C(=O)C1CC1)N1CCN(c2cccc(Cl)c2)CC1 | – | inconclusive: 8.91 µM [inhibitor, full curve, poor fit]
COC(=O)c1ccc(OCC(O)CN2C(=O)NC(C)(C)C2=O)cc1 (stereo unspecified) | – | inconclusive: 31.6 µM [inhibitor, partial curve]
CC1CCCCC1NC(=O)/C(C#N)=C/C=C/c1ccccc1[N+](=O)[O-] (stereo unspecified) | – | inconclusive: 17.8 µM [inhibitor, partial curve]
O=C1N=C(N2CCOCC2)S/C1=C/c1ccc(-c2ccc(F)cc2)o1 | – | inconclusive: 2.24 µM [inhibitor, full curve]
c1cn2cc(-c3ccc4c(c3)OCO4)nc2s1 | – | inconclusive: 20 µM [inhibitor, partial curve]
COc1ccc(Nc2nn3c(=O)c4cc5c(cc4nc3s2)OCO5)c(OC)c1 | – | inconclusive: 7.94 µM [inhibitor, full curve]
CN(C)CCNCc1ccc(OC2CCCC2)cc1 | inactive: 1.24% | –
C=CCn1c(CC(=O)OC)csc1=Nc1ccc(C(C)=O)cc1 | – | inconclusive: 14.1 µM [inhibitor, partial curve]
CN1C(=O)C2(c3ccccc31)N(c1cccc(C(F)(F)F)c1)C(=O)CS2(=O)=O (stereo unspecified) | inactive: -1.2% | –
C=CCn1c(O)c(N=NC(=O)c2ccccc2NS(=O)(=O)c2cccs2)c2ccccc21 | – | inconclusive: 22.4 µM [inhibitor, partial curve]
O=C(NCCCCc1ccccc1)C1CC(c2ccc([N+](=O)[O-])cc2)=NO1 (stereo unspecified) | – | inconclusive: 20 µM [inhibitor, partial curve]
COC(=O)c1ccc(NC(=O)c2cc(-c3ccccn3)nc3ccccc23)cc1 | inactive: -9.07% | –
c1ccc(-c2ccccc2-c2nc(-c3cccnc3)no2)cc1 | – | inconclusive: 20 µM [inhibitor, single point]
Cn1cnc([N+](=O)[O-])c1S(=O)(=O)c1ccc(Cl)cc1 | – | inconclusive: 8.91 µM [inhibitor, partial curve]
C=CCSc1nnc(-c2ccccc2N=Cc2c(C)[nH]n(-c3ccccc3)c2=O)c(=O)[nH]1 | – | inconclusive: 28.2 µM [inhibitor, partial curve]
Fc1ccccc1NC(=S)Nc1cccc2cnccc12 | – | inconclusive: 35.5 µM [inhibitor, partial curve]
CCn1c(SCC(=O)NNC(=O)c2ccc(C)cc2)nnc1-c1ccco1 | inactive: 6.91% | –
CCCS(=O)(=O)N1CC(=O)N(c2ccc(C)c(Cl)c2)C(C)(C(=O)NC2CCCCCC2)C1 (stereo unspecified) | inactive: -13.3% | –
Cc1cccc(Nc2nc(N)nc(CN3CCN(c4ccccc4)CC3)n2)c1 | – | inconclusive: 17.8 µM [inhibitor, partial curve, poor fit]
Fc1cc2nccnc2cc1N1CCSCC1 | inactive: 2.92% | –
CC(C)(C)c1cc(NC(=O)c2ccc(OC3CCCC3)cc2)no1 | – | inconclusive: 7.94 µM [inhibitor, full curve, poor fit]
Cc1ccc(CS(=O)(=O)c2ncc(Cl)c(C(=O)Nc3nnc(C(C)C)s3)n2)cc1 | – | inconclusive: 3.16 µM [inhibitor, full curve]
